From PubChem BioAssay AID504332 (National Center for Advancing Translational Sciences (NCATS), 2011)
Screen size: about 350,000 compounds; about 31,000 (8.9%) were called active. The shares of active, inactive and inconclusive entries below differ from those in the screen. Calls come from the whole dose curve; as a rule, active = well fitted inhibition curve with a large enough effect; inconclusive = small, poorly fitted or top-dose-only effect; inactive = no such curve, though single readings can be large or run the other way. Potencies of inconclusive entries are doubtful fits and often do not repeat.

Target: Histone-lysine N-methyltransferase EHMT2 (Homo sapiens) (UniProt Q96KQ7)
UniProt Q96KQ7, sequence (Q96KQ7 whole entry, looked up): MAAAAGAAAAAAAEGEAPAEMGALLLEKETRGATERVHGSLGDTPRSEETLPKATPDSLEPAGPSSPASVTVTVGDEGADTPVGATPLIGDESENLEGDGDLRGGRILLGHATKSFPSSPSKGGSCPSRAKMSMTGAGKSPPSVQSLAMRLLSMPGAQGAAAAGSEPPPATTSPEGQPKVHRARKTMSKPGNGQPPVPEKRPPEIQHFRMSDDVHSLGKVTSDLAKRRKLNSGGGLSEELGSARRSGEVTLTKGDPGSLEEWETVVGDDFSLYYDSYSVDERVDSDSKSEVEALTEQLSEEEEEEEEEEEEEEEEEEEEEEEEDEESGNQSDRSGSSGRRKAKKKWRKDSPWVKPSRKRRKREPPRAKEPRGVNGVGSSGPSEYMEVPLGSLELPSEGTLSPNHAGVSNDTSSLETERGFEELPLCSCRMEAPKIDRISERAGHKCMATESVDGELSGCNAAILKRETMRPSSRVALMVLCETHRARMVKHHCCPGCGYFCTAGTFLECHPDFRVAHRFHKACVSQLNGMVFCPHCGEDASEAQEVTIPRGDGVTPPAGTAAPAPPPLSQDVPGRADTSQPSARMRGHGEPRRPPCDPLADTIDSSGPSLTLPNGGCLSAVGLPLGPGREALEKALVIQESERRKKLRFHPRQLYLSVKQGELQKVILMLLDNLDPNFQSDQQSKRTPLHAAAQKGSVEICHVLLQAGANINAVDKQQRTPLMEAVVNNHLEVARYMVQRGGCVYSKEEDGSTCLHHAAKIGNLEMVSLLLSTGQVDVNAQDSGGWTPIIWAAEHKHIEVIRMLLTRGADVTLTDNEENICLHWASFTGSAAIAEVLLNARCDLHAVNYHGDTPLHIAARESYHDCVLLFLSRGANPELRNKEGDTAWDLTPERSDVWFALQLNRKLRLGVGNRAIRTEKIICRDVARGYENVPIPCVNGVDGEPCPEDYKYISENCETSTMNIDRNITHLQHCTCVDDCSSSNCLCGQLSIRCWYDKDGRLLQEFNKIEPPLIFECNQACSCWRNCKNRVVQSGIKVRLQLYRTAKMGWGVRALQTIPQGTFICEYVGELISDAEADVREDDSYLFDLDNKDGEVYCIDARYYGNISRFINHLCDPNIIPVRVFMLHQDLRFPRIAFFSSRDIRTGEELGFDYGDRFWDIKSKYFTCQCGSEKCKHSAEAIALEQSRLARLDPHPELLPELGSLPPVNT
Test: qHTS Assay for Inhibitors of Histone Lysine Methyltransferase G9a; note: nearly all actives have a fitted effect of over 75% in size
Details: G9a H3K9 monomethylation, AlphaScreen, 2 h; series mostly up to 59 µM
How it was run: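 Chemiluminescent proximity detection of H3K9 monomethylation, read after 10 min bead incubation in the dark. Reaction: 20 nM G9a, 500 nM biotin-H3K9 peptide, 20 uM SAM cofactor, 2 h, room temperature, following 15 min enzyme-compound preincubation.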
Potency is the fitted concentration of half-maximal effect; tags give direction and shape of the fitted curve.

| SMILES | Potency |
| --- | --- |
| COc1cccc(-c2nc(CS(=O)(=O)CC(=O)Nc3cccc(C(C)=O)c3)c(C)o2)c1 | inactive |
| COc1ccc(O)c(C(=O)c2cnc3nc4ccccc4n3c2)c1 | active: 31.6 µM |
| O=C(COc1ccc(Cl)cc1)Nc1ccc2c(c1)C(=O)NC2=O | inconclusive: 39.8 µM [inhibitor, single point] |
| Nc1c(C(=O)Nc2cccc(F)c2)nnn1-c1ccc2c(c1)OCCO2 | inconclusive: 89.1 µM [inhibitor, single point] |
| O=C(CN1CCN(c2ccc(F)cc2)CC1)Nc1ccccc1[N+](=O)[O-] | inactive |
| Cc1ccc(C(=O)Nc2ccccn2)cc1S(=O)(=O)N1CCOCC1 | inactive |
| CCN1CCN(C(=O)CS(=O)(=O)Cc2nc(-c3ccc(C)cc3)oc2C)CC1 | inconclusive: 39.8 µM [inhibitor, single point] |
| COc1ccc(CCNc2ncnc3c2c(-c2ccccc2)cn3-c2ccc(Cl)cc2)cc1OC | inconclusive: 10 µM [inhibitor, partial curve, poor fit] |
| COc1cccc2[nH]c(C(=O)NCCc3ccccc3)cc12 | inactive |
| CN(C)C(=O)c1ccc(NC(=O)c2ccccc2Sc2ccccc2C#N)cc1 | inconclusive: 6.31 µM [inhibitor, partial curve, poor fit] |
| COc1ccc(C(=O)NC2CCCc3c2cnn3-c2cc(F)cc(F)c2)c(OC)c1OC (configuration not stated) | inactive |
| O=C(CSc1nnc2ccccn12)c1ccccc1 | inconclusive: 15.8 µM [inhibitor, partial curve, poor fit] |
| COC(=O)c1c(NC(=O)COC(=O)CC(NC(C)=O)c2ccccc2)sc(C)c1C (configuration not stated) | inactive |
| Cc1ccc(C)n1NC(=O)c1cccc(Cl)c1 | inconclusive: 22.4 µM [inhibitor, single point] |
| CCOC(=O)c1ccccc1NC(=O)CSc1nnc(CC)n2c1cc1occc12 | inactive |
| COc1ccc(C)cc1NC(=O)c1cc(S(=O)(=O)N2CCC(C)CC2)ccc1F | inactive |
| CCc1noc(C)c1C(=O)Nc1ncc(C)s1 | inconclusive: 12.6 µM [inhibitor, partial curve, poor fit] |
| COc1ccc(-n2c(CN3CCOCC3)nc3ccc([N+](=O)[O-])cc3c2=O)c(OC)c1 | active: 44.7 µM |
| Cc1cc(Nc2nc3ccccc3c3nnc(C)n23)ccc1Br | inactive |
| Cc1csc(NC(=O)CSc2nnc(C)c(=O)n2N)n1 | inactive |
| CCCSC1=C(C#N)C(c2cccs2)CC(=O)N1 (configuration not stated) | inconclusive: 15.8 µM [inhibitor, partial curve, poor fit] |
| COc1ccc(CCC(=O)NCc2cn3ccccc3n2)cc1 | inconclusive: 35.5 µM [inhibitor, single point] |
